# Test results reported in PubChem BioAssay AID488969 (Vanderbilt High Throughput Screening Facility, 2010).
# Whole data set: some 110,000 compounds, median “z-score” near -0.1, cut for the highest 2% near 2. The list shows a part of the results.
# Target: Metabotropic glutamate receptor 8 (Rattus norvegicus) (UniProt P70579)
# Assay: mGluR8 Gi/Go-coupled signaling modulation – cell-based, rat, thallium flux, HTS, primary screen (AID 488969)
# Details: HEK293 rat mGluR8, GIRK (G protein-gated inwardly rectifying potassium channel) thallium flux, FluoZin2; at 10 µM; stronger effect = higher value; submaximal glutamate (EC20) added with thallium
# UniProt P70579, sequence (P70579 whole entry, looked up): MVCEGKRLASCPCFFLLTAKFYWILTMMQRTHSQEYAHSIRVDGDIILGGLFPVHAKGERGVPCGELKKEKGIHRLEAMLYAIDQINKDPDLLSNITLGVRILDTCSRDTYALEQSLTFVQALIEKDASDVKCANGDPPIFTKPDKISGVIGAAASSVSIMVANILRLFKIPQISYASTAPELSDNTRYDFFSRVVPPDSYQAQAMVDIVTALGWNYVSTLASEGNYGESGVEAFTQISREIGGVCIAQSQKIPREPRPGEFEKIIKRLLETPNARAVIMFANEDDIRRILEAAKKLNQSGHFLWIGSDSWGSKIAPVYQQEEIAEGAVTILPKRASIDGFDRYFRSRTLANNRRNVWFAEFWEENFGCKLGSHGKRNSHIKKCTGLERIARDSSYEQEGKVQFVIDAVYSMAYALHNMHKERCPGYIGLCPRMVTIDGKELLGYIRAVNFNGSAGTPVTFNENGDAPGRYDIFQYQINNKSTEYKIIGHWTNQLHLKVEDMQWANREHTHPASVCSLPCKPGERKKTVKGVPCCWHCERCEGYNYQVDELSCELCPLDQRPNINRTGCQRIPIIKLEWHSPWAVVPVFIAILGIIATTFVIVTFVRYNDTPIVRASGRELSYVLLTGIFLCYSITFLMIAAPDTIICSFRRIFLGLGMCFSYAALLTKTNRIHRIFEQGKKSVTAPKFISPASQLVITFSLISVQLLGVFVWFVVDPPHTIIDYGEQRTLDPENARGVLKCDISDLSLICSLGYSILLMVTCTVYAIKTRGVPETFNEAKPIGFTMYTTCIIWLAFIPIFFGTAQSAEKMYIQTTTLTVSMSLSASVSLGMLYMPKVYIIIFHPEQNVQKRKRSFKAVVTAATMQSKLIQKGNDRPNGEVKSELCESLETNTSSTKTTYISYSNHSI
row,SMILES,z-score
1,CN(C)S(=O)(=O)c1ccc(C(=O)OCCCN=C2NS(=O)(=O)c3ccccc32)cc1,-0.233
2,Cc1ccc(NC(=O)CCN2C(=O)CSC2=O)c(C)c1,-0.126
3,COc1cccc(NC(=O)COC(=O)c2cc(S(=O)(=O)N3CCOCC3)ccc2C)c1,0.12
4,Cc1ccsc1/C=N/n1c(C2CCCCC2)n[nH]c1=S,0.383
5,Cc1cc(C)c(NS(=O)(=O)c2ccc(Cl)c(C(=O)O)c2)c(C)c1,1.03
6,Cc1ccc(-c2nc(CS(=O)CC(=O)NCc3ccc(Cl)cc3)c(C)o2)cc1 (configuration not stated),-0.092
7,O=C(Nc1ccc(-c2cn3ccsc3n2)cc1)c1ccc(F)c(S(=O)(=O)N2CCOCC2)c1,-0.0159
8,CCc1ccc(-n2cc(-c3ccc([N+](=O)[O-])cc3)[nH]c2=S)cc1,0.69
9,O=C(Nc1ccc2c(c1)OCO2)c1cccc(Cl)c1,-0.323
10,CCCCc1nnc(NC(=O)CS(=O)(=O)Cc2ccccc2)s1,-0.243
11,C#CCn1cnc2c(cnn2-c2ccc(C)c(C)c2)c1=O,0.172
12,CS(=O)(=O)N1CCN(c2ccccc2NC(=O)c2ccc(Br)o2)CC1,-0.21
13,CCN1C(=O)c2ccc(C(=O)Nc3nccs3)cc2C1=O,-0.418
14,CCOC(=O)c1ccc(NC(=O)CC2COc3ccccc3O2)cc1 (configuration not stated),0.0513
15,CSc1nc(C)cc(SCCO)n1,-0.149
16,COc1ccc(C(C)NC(=S)NC2CCCC2)cc1OC (configuration not stated),-0.443
17,COc1ccc(-n2ncc3c(NCC4CCCO4)ncnc32)cc1 (configuration not stated),0.0525
18,Cc1ccc(-n2nc(-c3ccccc3)cc2Nc2ccccc2N)cc1,-0.38
19,O=C(O)C1C2C=CC(O2)C1C(=O)NCc1ccc2c(c1)OCO2 (configuration not stated),0.137
20,O=C(CCCC(=O)NCc1ccccc1)NCc1ccccc1,-0.141
21,O=C(NCCCn1ccnc1)c1ccc(Br)o1,-0.553
22,C=CCNC(=S)NNC(=O)c1csc(C)c1CC,-0.368
23,N#Cc1nc(-c2ccc(OCc3ccccc3)cc2)oc1NCc1ccco1,-1.13
24,O=S(=O)(NCc1cccnc1)c1ccc2c(c1)OCCO2,0.0622

row,SMILES,z-score
1,Cc1ccc(S(=O)(=O)N2CCC(C(=O)NCc3ccccc3Cl)CC2)cc1,0.217
2,COc1ccc2c(C)nc(Nc3nc(C)c(C)c(=O)[nH]3)nc2c1,-0.623
3,COc1cc(C(=O)NCC(c2cccs2)N(C)C)cc(Cl)c1OC(C)C (configuration not stated),-0.621
4,CCCCc1c(O)nc(SCCC(=O)O)[nH]c1=O,-0.183
5,CC(=O)c1c(C(C)=O)c(C)n(-c2nc(-c3ccccc3)c(C)s2)c1C,-0.399
6,Cc1ccc(C(C(=O)NCc2ccco2)N(C(=O)CNC(=O)c2cccs2)c2ccc(C)cc2C)cc1 (configuration not stated),-0.0836
7,CCOC(=O)c1sc(NS(=O)(=O)c2ccccc2Cl)nc1C,0.343
8,Cc1ccc(S(=O)(=O)N2CCCCC2)cc1NC(=O)CSc1ccc2c(c1)OCCO2,-0.361
9,CCOC(=O)Cc1c(C)c2c(C)[nH]nc2oc1=O,-0.549
10,NC(=O)c1nn(-c2ccccc2)nc1N,0.138
11,O=C(CN1C(=O)COc2ccccc21)NCCCN1CCc2ccccc2C1,0.383
12,Cn1c2ccccc2c2c(C(=O)N3CCN(C(=O)c4ccco4)CC3)cn(C3CCCCC3)c(=O)c21,-0.126
13,CCOC(=O)/C(C#N)=C/c1c(Oc2cc(C)cc(C)c2)nc2ccccn2c1=O,-0.027
14,CC(C)C(O)(C#CCN1CCCC1)c1ccccc1 (configuration not stated),-0.181
15,CC(C)CCNC(=O)CN(C)S(=O)(=O)c1cccc2nsnc12,-0.869
16,O=C(NC(=S)N1CCN(c2ccc(F)cc2)CC1)C12CC3CC(CC(C3)C1)C2,2.89
17,O=C(c1ccco1)c1nnn(Cc2ccccc2)c1-c1ccccc1,-0.338
18,CC(=O)Nc1ccc(S(=O)(=O)N2CCN(C(C)CCc3ccccc3)CC2)cc1 (configuration not stated),0.289
19,C=CCSC1=N/C(=C\c2cccnc2)C(=O)N1c1ccc(OC)cc1,-0.066
20,Cc1ccccc1NC(=S)NC(NC(=O)c1ccccc1C)C(Cl)(Cl)Cl (configuration not stated),-0.0574
21,O=[N+]([O-])c1cc(S(=O)(=O)Nc2ccccc2)ccc1N1CCN(c2ccccc2)CC1,-0.119
22,CC1CCN(S(=O)(=O)Cc2ccccc2Cl)CC1,-0.252
23,CCOc1ccccc1NC(=O)c1cccc(S(=O)(=O)N(Cc2ccccc2)c2ccccc2OC)c1,-0.414
24,CCOC(=O)c1cc2c(s1)-c1c(C)cccc1OC2,0.00792

row,SMILES,z-score
1,COC(=O)c1sccc1NC(=O)C1C2C=CC(C2)C1C(=O)O (configuration not stated),-0.844
2,CCOC(=O)N1CCN(C(=O)c2cn(CC)c3ccc(S(=O)(=O)N4CCCC4)cc3c2=O)CC1,1.25
3,N#Cc1cnn(-c2ncnc3sc4c(c23)CCCC4)c1N,-0.172
4,CC1(C)CC(=O)C=C(NC2CC(C)(C)NC(C)(C)C2)C1,-0.225
5,CC(C)C(=O)NC(=S)Nc1ccc(S(=O)(=O)Nc2ccccc2)cc1,-0.173
6,O=[N+]([O-])c1ccc(/C=N/n2c(COc3ccccc3)n[nH]c2=S)cc1,0.438
7,CCCC(=O)NCCc1nc2cc([N+](=O)[O-])ccc2n1C,-0.332
8,CSc1ccc(N2C(=O)NC3(CCCCC3)C2=O)cc1,1.13
9,O=C(CSc1nc2ccccc2c(=O)n1Cc1ccco1)N1CCN(c2ccccc2)CC1,-2.1
10,Clc1cccc(CON/C=N/c2ncnc3sccc23)c1,0.127
11,CCOC(=O)C1(c2csc(N)n2)COC(=O)C1 (configuration not stated),0.712
12,Cc1ccccc1OCC(O)Cn1c2ccccc2c2ccccc21 (configuration not stated),-0.312
13,CNc1ncc(C(=O)c2ccccc2)s1,-0.0506
14,Cc1ccc(C(=O)NCC(C)(C)O)cc1,-0.259
15,COc1cc2c(cc1OC)C(C(C)C)=NC(C)(C)C2,0.389
16,CC(C)NC(=S)N/N=C1\CCCCc2ccccc21,-0.471
17,Cc1ccc(C(=O)N2CCN(c3ccc(Cl)cc3)CC2)cc1,-0.114
18,Cc1ccccc1NC(=O)/C(=C/c1ccccc1)c1ccccc1,-0.447
19,Cc1cc(C)nc(Nc2nc(C)c3cc4c(cc3n2)OCO4)n1,-0.794
20,CCC1CCCCN1CCCNC(=O)C1CCC(Cn2c(=O)[nH]c3ccccc3c2=O)CC1 (configuration not stated),-0.212
21,CO/N=C/c1ccc(N2CCN(C(=O)c3cccc(Cl)c3)CC2)c([N+](=O)[O-])c1,0.0935
22,O=C(c1cccc(F)c1)N1CCCC(C(=O)N2CCCC2)C1 (configuration not stated),0.348
23,Cc1nc2ccc(NC(=O)N3CCSCC3)cc2nc1C,0.208
24,CCOc1ccc2[nH]c(O)c(NC(C)=O)c2c1,-0.136
